# Test results taken from PubChem BioAssay AID504332 (National Center for Advancing Translational Sciences (NCATS), 2011).
# Screen size: about 350,000 compounds; about 31,000 (8.9%) were called active. The shares of active, inactive and inconclusive entries below differ from those in the screen. The call rests on the fitted dose curve; in most records, active means well fitted inhibition curve with a large enough effect; inconclusive means small, poorly fitted or top-dose-only effect; inactive means no such curve, though single readings can be large or run the other way. Where the call is inconclusive, the potency comes from a doubtful curve fit.
# Target: Histone-lysine N-methyltransferase EHMT2 (Homo sapiens) (UniProt Q96KQ7)
# Chain of UniProt Q96KQ7 (Q96KQ7 whole entry, looked up): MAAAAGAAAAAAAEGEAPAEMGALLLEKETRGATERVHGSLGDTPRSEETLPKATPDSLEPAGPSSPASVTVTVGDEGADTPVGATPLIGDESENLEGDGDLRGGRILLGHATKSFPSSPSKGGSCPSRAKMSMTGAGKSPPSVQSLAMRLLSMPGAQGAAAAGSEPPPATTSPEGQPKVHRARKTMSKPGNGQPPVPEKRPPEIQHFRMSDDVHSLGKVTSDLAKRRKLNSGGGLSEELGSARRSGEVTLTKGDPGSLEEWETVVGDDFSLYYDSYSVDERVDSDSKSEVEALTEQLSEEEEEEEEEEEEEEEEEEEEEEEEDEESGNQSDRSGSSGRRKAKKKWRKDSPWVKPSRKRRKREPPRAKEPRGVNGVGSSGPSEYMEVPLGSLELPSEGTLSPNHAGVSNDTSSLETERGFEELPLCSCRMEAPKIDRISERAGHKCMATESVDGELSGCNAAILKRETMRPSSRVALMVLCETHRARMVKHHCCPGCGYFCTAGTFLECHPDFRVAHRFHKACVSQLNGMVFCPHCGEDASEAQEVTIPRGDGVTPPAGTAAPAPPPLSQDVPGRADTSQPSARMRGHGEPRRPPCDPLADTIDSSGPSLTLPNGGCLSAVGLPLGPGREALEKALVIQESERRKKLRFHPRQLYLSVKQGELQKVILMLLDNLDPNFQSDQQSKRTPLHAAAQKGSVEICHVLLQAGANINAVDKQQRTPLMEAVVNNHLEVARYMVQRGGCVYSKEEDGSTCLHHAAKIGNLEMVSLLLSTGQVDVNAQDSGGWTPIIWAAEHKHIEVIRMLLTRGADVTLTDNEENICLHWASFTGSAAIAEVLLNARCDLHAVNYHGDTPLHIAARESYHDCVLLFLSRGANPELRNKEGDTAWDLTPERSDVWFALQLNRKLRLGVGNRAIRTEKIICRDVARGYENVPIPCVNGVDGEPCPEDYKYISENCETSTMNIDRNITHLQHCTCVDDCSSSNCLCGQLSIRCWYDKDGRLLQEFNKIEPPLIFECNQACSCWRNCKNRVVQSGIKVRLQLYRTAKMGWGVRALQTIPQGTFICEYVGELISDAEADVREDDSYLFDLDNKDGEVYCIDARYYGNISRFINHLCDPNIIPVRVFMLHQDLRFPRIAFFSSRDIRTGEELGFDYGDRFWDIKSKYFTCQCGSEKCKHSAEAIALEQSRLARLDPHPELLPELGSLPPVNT
# Experiment: qHTS Assay for Inhibitors of Histone Lysine Methyltransferase G9a; further: nearly all actives have a fitted effect of over 75% in size
# Conditions: G9a H3K9 monomethylation, AlphaScreen, 2 h; activity, negative = inhibition: at 59 µM (top of the series) unless noted
# Method in brief: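 G9a (20 nM) preincubated 15 min RT with compounds, then 500 nM biotinylated H3K9 peptide and 20 uM SAM added; 2 h RT reaction. Monomethyl-H3K9 product detected by AlphaScreen with anti-H3K9me1 antibody, streptavidin donor and anti-rabbit IgG acceptor beads.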
# On the % scale 0 is the no-effect control and ±100 the full control effect; potency means the concentration at half of the fitted maximal effect; tags describe the fitted curve by direction and shape.
Structure (SMILES),Potency,"activity, negative = inhibition"
CCC12CCCN3CCC4(C(=C(C(=O)OC)C1)Nc1ccccc14)C32 (configuration not stated),active: 2.82 µM,
O=C(NC(=S)Nc1ccccn1)c1ccc([N+](=O)[O-])cc1,active: 79.4 µM,
COC(=O)/C(=C/c1ccco1)NC(=O)c1ccco1,"inconclusive: 35.5 µM [inhibitor, single point]",
CCOc1ccc(C2C=C(c3ccc(C)cc3)Nc3ncnn32)cc1 (configuration not stated),active: 28.2 µM,
CCOC(=O)c1c(C)[nH]c(C=C2C(=O)CCCC2=O)c1O,"inconclusive: 39.8 µM [inhibitor, single point]",
O=C(O)c1ccccc1-c1ccc(/C=C/c2cc(C(F)(F)F)[nH]c(=O)n2)o1,active: 39.8 µM,
Cc1cc(O)c(C(c2ccccc2)N2CCCCC2)c(=O)n1Cc1ccco1 (configuration not stated),"inconclusive: 39.8 µM [inhibitor, partial curve, poor fit]",
Cc1nnc(NC(=O)CSc2cn(Cc3ccccc3)c3ccccc23)s1,"inconclusive: 89.1 µM [inhibitor, single point]",
Nc1cnc(Br)cc1Br,inactive,
COc1ccc(NC(=O)Nc2cc(NC(=O)Nc3ccc(OC)cc3)c(C)nc2C)cc1,"inconclusive: 10 µM [inhibitor, partial curve, poor fit]",
CSc1nc2sc3c(c2c(=S)[nH]1)CC(C)(C)OC3,"inconclusive: 79.4 µM [inhibitor, partial curve, poor fit]",
O=C(CSc1nnc(-c2ccccc2F)o1)NC(=O)Cc1ccccc1,,inactive: 1.63% [at 2.33 µM]
C[n+]1ccccc1C1CCCC/C1=N\NC(N)=S (configuration not stated),active: 15.8 µM,
CCC(C(=O)Nc1cccc(Cl)c1C)n1nc(C)c2sc3ccccc3c2c1=O (configuration not stated),inactive,
COc1ccc(Br)cc1CNC(=O)CCCc1cn(C)c2ccccc12,"inconclusive: 79.4 µM [inhibitor, single point]",
COc1cc2nc(C3CC3)n(NC(=O)c3ccc(Cl)cc3)c(=O)c2cc1OC,"inconclusive: 56.2 µM [inhibitor, partial curve, poor fit]",
CC(C)c1onc(C(=O)Nc2ccc3c(c2)OCO3)c1[N+](=O)[O-],"inconclusive: 89.1 µM [inhibitor, single point]",
COc1ccc(NC(=O)c2cc(-c3ccncc3)nc3ccc(Br)cc23)cc1OC,inactive,
CC1CCC(NC(=O)c2ccc(-n3cncn3)c([N+](=O)[O-])c2)CC1 (configuration not stated),inactive,
O=C(NC1CCCC1)C(NS(=O)(=O)c1cccc2nsnc12)c1ccccc1 (configuration not stated),"inconclusive: 39.8 µM [inhibitor, full curve]",
COc1ccc(C2Nc3ccccc3C(=O)N2Cc2ccco2)cc1COc1ccc(F)cc1 (configuration not stated),inactive,
O=C(/C=C/c1cccc(OCc2ccccc2)c1)c1cccnc1,"inconclusive: 31.6 µM [inhibitor, single point]",
COC(=O)C1=C(C)N(Cc2ccc(OC)cc2)C(=O)C1,inactive,
CCOC(=O)C1=C(N)Oc2cc(C)n(CCc3ccc(OC)c(OC)c3)c(=O)c2C1c1cccnc1 (configuration not stated),"inconclusive: 100 µM [inhibitor, single point]",

Structure (SMILES),Potency,"activity, negative = inhibition"
Cc1oc(-c2ccc(Cl)cc2)nc1CN1CCCC(C(=O)NCCc2ccc(Cl)cc2)C1 (configuration not stated),"inconclusive: 22.4 µM [inhibitor, partial curve, poor fit]",
CC(CCc1ccccc1)NC(=O)c1ccc(NC(=O)c2ccccc2)cc1 (configuration not stated),"inconclusive: 79.4 µM [inhibitor, single point]",
Cn1c(=O)n(C)c2cc(/C=N/NC(=O)c3ccc(Cl)cc3)ccc21,"inconclusive: 79.4 µM [inhibitor, partial curve, poor fit]",
O=C(COC(=O)Cc1cn2ccsc2n1)NCc1ccc2c(c1)OCO2,"inconclusive: 89.1 µM [inhibitor, single point]",
Cn1c(N)c(C(=O)COC(=O)c2cccs2)c(=O)n(C)c1=O,"inconclusive: 3.98 µM [inhibitor, full curve]",
COc1cccc(N=C2NC(=O)/C(=C/c3cc([N+](=O)[O-])ccc3O)S2)c1,"inconclusive: 89.1 µM [inhibitor, single point]",
COc1ccc(C(=O)C2CCCN(C(=O)Cn3ccc(C)n3)C2)cc1OC (configuration not stated),,inactive: 17.8% [at 0.501 µM]
O=C(O)CCC(=O)Nc1ccc(Br)cc1C(=O)c1ccccc1Cl,inactive,
COc1ccc(CCN(C)Cc2c(O)ccc3cc(Br)ccc23)cc1OC,active: 25.1 µM,
O=C(COc1ccc2c(c1)OCO2)Nc1nccs1,inactive,
Clc1ccccc1OCCCCN1CCCC1,,inconclusive: -89.4% [inhibitor]
Cc1c(C(=O)N2CCOCC2)oc2ccc(S(=O)(=O)N3CCCC3)cc12,"inconclusive: 39.8 µM [inhibitor, single point]",
Cc1ccc(C(C)C)c(OCC#CCN2CCOCC2)c1,active: 7.94 µM,
COc1cccc(/C=N/NC(=O)c2ccccc2NC(=O)c2ccco2)c1OC,"inconclusive: 25.1 µM [inhibitor, single point]",
O=C(CC12CC3CC(CC(C3)C1)C2)Nc1ccccc1N1CCOCC1,inactive,
Cc1cccc(CN2CCN(C(=O)c3ccccc3F)CC2)c1,"inconclusive: 39.8 µM [inhibitor, single point]",
COc1cc(OC)c(C(=S)N2CCCC2)cc1OC,,inactive: 10.9% [at 0.501 µM]
COc1ccc(NC(=O)c2c(NCc3cccs3)sc3c2CCC(C)C3)c(OC)c1 (configuration not stated),"inconclusive: 3.55 µM [inhibitor, full curve]",
Cc1ccc(C2CC(c3ccco3)n3ncnc3N2)cc1 (configuration not stated),"inconclusive: 89.1 µM [inhibitor, single point]",
CC(C)(C)NC(=O)COc1ccccc1C#N,inactive,
COc1ccc(-c2nnc(SCC(=O)Nc3cccc(C(F)(F)F)c3)s2)cc1,inactive,
CC1CCN(C(=O)C2CCN(CC(C)c3ccccc3)CC2)CC1 (configuration not stated),"inconclusive: 28.2 µM [inhibitor, single point]",
O=C(Nc1n[nH]c(C(F)(F)F)n1)C1CC1,active: 50.1 µM,
